Measured values taken from the supplement of paper PMC9151546.
± gives the standard deviation of the averaged measurements. Single values are uncertain, as repeats are few or missing.

How the values were obtained:
CHO-K1 [1] = experiment: micronucleus frequency (% of nucleated events); higher = more micronuclei (genotoxic)
CHO-K1 [2] = experiment: relative survival (nuclei to bead ratio vs DMSO control) (% of vehicle control); higher = more surviving cells
Protocol: (§1)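 Flow-cytometric in vitro micronucleus assay (Litron MicroFlow) in CHO-K1 cells in 96-well plates, 19 concentrations (4.5-200 µM, n=1 per concentration). Without S9, cells were exposed for 24 h and sampled at 48 h. With Aroclor 1254-induced rat liver S9, cells were exposed for 3-4 h and sampled at 27-28 h. Read-outs are %MN and %hypodiploid nuclei relative to nucleated events, and relative survival as the nuclei-to-bead ratio versus the 1% DMSO vehicle control (x100).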

CHO-K1 [3] = experiment: hypodiploid nuclei frequency (% of nucleated events); higher = more hypodiploid events (aneugenic)
Protocol: as §1
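Wherever hypodiploid nuclei frequency (% of nucleated events) is given: hypodiploid nuclei gated on a flow cytometer with 488 nm excitation after SYTOX Green staining, cultures at 37 °C, positive controls vinblastine without S9 and cyclophosphamide with S9.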
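Wherever micronucleus frequency (% of nucleated events) is given: cells lysed with nuclei stained by SYTOX Green, then micronucleus-gated events counted against nucleated events by flow cytometry with 488 nm excitation.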
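Wherever relative survival (nuclei to bead ratio vs DMSO control) is given: Lysed-cell nuclei stained with SYTOX Green and counted against counting beads by flow cytometry at 488 nm excitation, with vinblastine (no S9) and cyclophosphamide (plus S9) as positive controls.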

ClC1=C(Cl)C2(Cl)C3C4CC(C5OC45)C3C1(Cl)C2(Cl)Cl (stereo unspecified) [Endrin]
Details	hypodiploid nuclei frequency, CHO-K1 [3] [%]	micronucleus frequency, CHO-K1 [1] [%]	relative survival, CHO-K1 [2]
concentration: 4.5 (µM), S9 metabolic activation: with S9, exposure time: 3-4 hours	0.37 ± 0.24	2.1 ± 0.73	146 ± 22
concentration: 4.5 (µM), S9 metabolic activation: without S9, exposure time: 24 hours	1.36	1.8	85.6
concentration: 5.63 (µM), S9 metabolic activation: with S9, exposure time: 3-4 hours	0.32 ± 0.028	1.85 ± 0.47	135 ± 8.3
concentration: 5.63 (µM), S9 metabolic activation: without S9, exposure time: 24 hours	1.32	1.64	84.3
concentration: 7.04 (µM), S9 metabolic activation: with S9, exposure time: 3-4 hours	0.34 ± 0.28	2.07 ± 0.69	120 ± 7.8
concentration: 7.04 (µM), S9 metabolic activation: without S9, exposure time: 24 hours	1.28	1.5	108
concentration: 8.8 (µM), S9 metabolic activation: with S9, exposure time: 3-4 hours	0.28 ± 0.085	2.04 ± 0.85	112 ± 19
concentration: 8.8 (µM), S9 metabolic activation: without S9, exposure time: 24 hours	1.04	1.08	97.5
concentration: 11 (µM), S9 metabolic activation: with S9, exposure time: 3-4 hours	0.45 ± 0.18	2.38 ± 1.5	114 ± 22
concentration: 11 (µM), S9 metabolic activation: without S9, exposure time: 24 hours	1.04	0.68	105
concentration: 13.7 (µM), S9 metabolic activation: with S9, exposure time: 3-4 hours	0.29 ± 0.13	2.56 ± 0.93	132 ± 28
concentration: 13.7 (µM), S9 metabolic activation: without S9, exposure time: 24 hours	1.68	2.02	89.1
concentration: 17.2 (µM), S9 metabolic activation: with S9, exposure time: 3-4 hours	0.41 ± 0.042	3.95 ± 2.2	120 ± 58
concentration: 17.2 (µM), S9 metabolic activation: without S9, exposure time: 24 hours	1.4	1.5	92.9
concentration: 21.5 (µM), S9 metabolic activation: with S9, exposure time: 3-4 hours	0.45 ± 0.27	3.38 ± 2.3	101 ± 11
concentration: 21.5 (µM), S9 metabolic activation: without S9, exposure time: 24 hours	1	1.66	83.1
concentration: 26.8 (µM), S9 metabolic activation: with S9, exposure time: 3-4 hours	0.255 ± 0.12	1.56 ± 0.23	87.8 ± 16
concentration: 26.8 (µM), S9 metabolic activation: without S9, exposure time: 24 hours	1.7	2.1	97.5
concentration: 33.6 (µM), S9 metabolic activation: with S9, exposure time: 3-4 hours	0.18	1.53 ± 0.18	78.2 ± 18
concentration: 33.6 (µM), S9 metabolic activation: without S9, exposure time: 24 hours	1.76	1.32	69.3
concentration: 41.9 (µM), S9 metabolic activation: with S9, exposure time: 3-4 hours	0.39 ± 0.16	1.88 ± 0.37	101 ± 17
concentration: 41.9 (µM), S9 metabolic activation: without S9, exposure time: 24 hours	2.4	3	90
concentration: 52.4 (µM), S9 metabolic activation: with S9, exposure time: 3-4 hours	0.31 ± 0.071	1.63 ± 0.13	103 ± 15
concentration: 52.4 (µM), S9 metabolic activation: without S9, exposure time: 24 hours	1.76	1.38	54.9
concentration: 65.5 (µM), S9 metabolic activation: with S9, exposure time: 3-4 hours	0.3 ± 0.028	2.04 ± 0.68	89.8 ± 15
concentration: 65.5 (µM), S9 metabolic activation: without S9, exposure time: 24 hours	2.3	2.6	63
concentration: 81.9 (µM), S9 metabolic activation: with S9, exposure time: 3-4 hours	0.23 ± 0.099	1.57 ± 0.071	105 ± 39
concentration: 81.9 (µM), S9 metabolic activation: without S9, exposure time: 24 hours	2.42	1.74	58.6
concentration: 102 (µM), S9 metabolic activation: with S9, exposure time: 3-4 hours	0.26 ± 0.085	1.34 ± 0.4	80.6 ± 23
concentration: 102 (µM), S9 metabolic activation: without S9, exposure time: 24 hours	2.8	2.46	58.4
concentration: 128 (µM), S9 metabolic activation: with S9, exposure time: 3-4 hours	0.5 ± 0.11	2.03 ± 0.49	91.53 ± 0.38
concentration: 128 (µM), S9 metabolic activation: without S9, exposure time: 24 hours	2.94	3.36	66.9
concentration: 160 (µM), S9 metabolic activation: with S9, exposure time: 3-4 hours	0.38 ± 0.057	1.67 ± 0.77	61.9 ± 23
concentration: 160 (µM), S9 metabolic activation: without S9, exposure time: 24 hours	2.66	2.16	57.2
concentration: 200 (µM), S9 metabolic activation: with S9, exposure time: 3-4 hours	0.43 ± 0.24	3.4 ± 2.6	74.11 ± 0.33
concentration: 200 (µM), S9 metabolic activation: without S9, exposure time: 24 hours	1.88	2.24	56.5

C[C@]12CC[C@@H]3c4ccc(O)cc4CC[C@H]3[C@@H]1CCC2=O [Estrone]
Details	hypodiploid nuclei frequency, CHO-K1 [3] [%]	micronucleus frequency, CHO-K1 [1] [%]	relative survival, CHO-K1 [2]
concentration: 4.5 (µM), S9 metabolic activation: with S9, exposure time: 3-4 hours	0.34	1.78	85.1
concentration: 4.5 (µM), S9 metabolic activation: without S9, exposure time: 24 hours	0.86	1.9	104
concentration: 5.63 (µM), S9 metabolic activation: with S9, exposure time: 3-4 hours	0.28	1.5	95.7
concentration: 5.63 (µM), S9 metabolic activation: without S9, exposure time: 24 hours	0.74	2.46	140
concentration: 7.04 (µM), S9 metabolic activation: with S9, exposure time: 3-4 hours	0.18	1.82	72.9
concentration: 7.04 (µM), S9 metabolic activation: without S9, exposure time: 24 hours	1.04	2.1	108
concentration: 8.8 (µM), S9 metabolic activation: with S9, exposure time: 3-4 hours	0.4	1.82	84.5
concentration: 8.8 (µM), S9 metabolic activation: without S9, exposure time: 24 hours	1.22	2.28	111
concentration: 11 (µM), S9 metabolic activation: with S9, exposure time: 3-4 hours	0.34	1.6	82.3
concentration: 11 (µM), S9 metabolic activation: without S9, exposure time: 24 hours	1.36	2.56	114
concentration: 13.7 (µM), S9 metabolic activation: with S9, exposure time: 3-4 hours	0.16	1.6	84.8
concentration: 13.7 (µM), S9 metabolic activation: without S9, exposure time: 24 hours	1.9	2.38	105
concentration: 17.2 (µM), S9 metabolic activation: with S9, exposure time: 3-4 hours	0.24	1.5	75
concentration: 17.2 (µM), S9 metabolic activation: without S9, exposure time: 24 hours	2.2	3.1	112
concentration: 21.5 (µM), S9 metabolic activation: with S9, exposure time: 3-4 hours	0.18	1.28	92.9
concentration: 21.5 (µM), S9 metabolic activation: without S9, exposure time: 24 hours	1.8	3.02	90.7
concentration: 26.8 (µM), S9 metabolic activation: with S9, exposure time: 3-4 hours	0.18	1.44	86.8
concentration: 26.8 (µM), S9 metabolic activation: without S9, exposure time: 24 hours	2.76	3.24	105
concentration: 33.6 (µM), S9 metabolic activation: with S9, exposure time: 3-4 hours	0.2	1.08	98.6
concentration: 33.6 (µM), S9 metabolic activation: without S9, exposure time: 24 hours	3.48	4.36	90.3
concentration: 41.9 (µM), S9 metabolic activation: with S9, exposure time: 3-4 hours	0.2	1.74	88
concentration: 41.9 (µM), S9 metabolic activation: without S9, exposure time: 24 hours	4.46	4.74	99.5
concentration: 52.4 (µM), S9 metabolic activation: with S9, exposure time: 3-4 hours	0.2	1.28	81.5
concentration: 52.4 (µM), S9 metabolic activation: without S9, exposure time: 24 hours	4.76	4.16	91.1
concentration: 65.5 (µM), S9 metabolic activation: with S9, exposure time: 3-4 hours	0.2	1.36	79.5
concentration: 65.5 (µM), S9 metabolic activation: without S9, exposure time: 24 hours	3.84	3.94	114
concentration: 81.9 (µM), S9 metabolic activation: with S9, exposure time: 3-4 hours	0.16	1.84	73.3
concentration: 81.9 (µM), S9 metabolic activation: without S9, exposure time: 24 hours	4.16	4.56	108
concentration: 102 (µM), S9 metabolic activation: with S9, exposure time: 3-4 hours	0.24	1.84	82.3
concentration: 102 (µM), S9 metabolic activation: without S9, exposure time: 24 hours	4.3	3.88	86.3
concentration: 128 (µM), S9 metabolic activation: with S9, exposure time: 3-4 hours	0.18	0.9	82.6
concentration: 128 (µM), S9 metabolic activation: without S9, exposure time: 24 hours	4.12	4.72	81.8
concentration: 160 (µM), S9 metabolic activation: with S9, exposure time: 3-4 hours	0.2	0.9	66.6
concentration: 160 (µM), S9 metabolic activation: without S9, exposure time: 24 hours	4.62	4.46	91.5
concentration: 200 (µM), S9 metabolic activation: with S9, exposure time: 3-4 hours	0.24	1.32	76.6
concentration: 200 (µM), S9 metabolic activation: without S9, exposure time: 24 hours	3.82	4.2	93.4
